Results reported in paper PMC10017685 (Nature Communications, 2023).
≈ marks a conversion by molar mass, not a printed value. Read-outs that look alike come from different tables or passages of the source. Peptide text beside a SMILES is read from it.

What was measured:
E. coli ATCC 25922 = assay type: cell-based, Escherichia coli; settings: for MIC E. coli ATCC 25922: first experimental round, broth microdilution (CLSI), Mueller-Hinton Broth, 0.5 × 10^5 CFU/mL, 1-[…], 18 h at 37 °C, triplicate
Protocol: Fresh cultures were used in antimicrobial assay. […] Moreover MBC was evaluated. […] All experiments were conducted in triplicate.

E. coli ATCC 43827 = assay type: cell-based, Escherichia coli; settings: for MIC E. coli ATCC 43927: first experimental round, broth microdilution (CLSI), Mueller-Hinton Broth, 0.5 × 10^5 CFU/mL, 1-[…], 18 h at 37 °C, triplicate
[1] = Supplementary Data 5F, analogue generation without additional preselection

Structure (SMILES): CC(C)C[C@H](NC(=O)[C@H](CCCCN)NC(=O)CNC(=O)[C@H](C)NC(=O)[C@H](CCC(N)=O)NC(=O)[C@H](Cc1c[nH]c2ccccc12)NC(=O)[C@H](CC(C)C)NC(=O)[C@H](CCCCN)NC(=O)[C@H](CCCCN)NC(=O)[C@H](CC(C)C)NC(=O)[C@H](CCC(=O)O)NC(=O)CN)C(=O)N[C@@H](CO)C(=O)N[C@@H](CCC(=O)O)C(=O)N[C@@H](CCC(=O)O)C(=O)N[C@@H](CC(=O)O)C(=O)NCC(=O)NCC(=O)N[C@@H](C)C(=O)N[C@@H](Cc1ccccc1)C(=O)N[C@@H](CCCCN)C(=O)N[C@@H](C)C(=O)NCC(N)=O [Pex-P1-4]
- E. coli ATCC 25922 MIC (E. coli ATCC 25922; [1]): >512 µg/mL
- MIC E. coli ATCC 25922 (E. coli ATCC 25922): >512 µg/mL
- E. coli ATCC 43827 MIC (E. coli ATCC 43827; [1]): >512 µg/mL
- MIC E. coli ATCC 43927 (E. coli ATCC 43827): >512 µg/mL

Structure (SMILES): CC[C@H](C)[C@H](NC(=O)CNC(=O)[C@H](CO)NC(=O)[C@H](CC(C)C)NC(=O)[C@@H](NC(=O)[C@H](CCCNC(=N)N)NC(=O)CNC(=O)[C@@H](NC(=O)[C@H](CC(C)C)NC(=O)[C@@H]1CCCN1C(=O)[C@H](CC(C)C)NC(=O)[C@@H](N)Cc1ccccc1)[C@@H](C)CC)C(C)C)C(=O)N[C@@H](CC(C)C)C(N)=O [Temporin-A, reference compound] (H-FLPLIGRVLSGIL-NH2)
- E. coli ATCC 25922 MIC (E. coli ATCC 25922; ATCC 25922, 24 h): 256 µg/mL
- E. coli ATCC 43827 MIC (E. coli ATCC 43827; ATCC 43827, 24 h): 256 µg/mL

Structure (SMILES): CC[C@H](C)[C@H](NC(=O)CNC(=O)[C@H](CO)NC(=O)[C@H](Cc1ccccc1)NC(=O)[C@@H](NC(=O)[C@H](CCCNC(=N)N)NC(=O)CNC(=O)[C@@H](NC(=O)[C@H](CC(C)C)NC(=O)[C@@H]1CCCN1C(=O)[C@H](CC(C)C)NC(=O)[C@@H](N)Cc1ccccc1)[C@@H](C)CC)C(C)C)C(=O)N[C@@H](CC(C)C)C(N)=O [Temp-P1-1]
- E. coli ATCC 25922 MIC (E. coli ATCC 25922; [1]): 512 µg/mL
- MIC E. coli ATCC 25922 (E. coli ATCC 25922): 512 µg/mL (≈ 358 µM)
- E. coli ATCC 43827 MIC (E. coli ATCC 43827; [1]): 512 µg/mL
- MIC E. coli ATCC 43927 (E. coli ATCC 43827): 512 µg/mL (≈ 358 µM)

Structure (SMILES): CC[C@H](C)[C@H](NC(=O)[C@H](Cc1c[nH]c2ccccc12)NC(=O)[C@H](CC(C)C)NC(=O)[C@H](CCCCN)NC(=O)[C@H](CCCCN)NC(=O)[C@H](C)NC(=O)[C@@H](NC(=O)CN)C(C)C)C(=O)N[C@@H](C)C(=O)N[C@@H](C)C(=O)N[C@@H](CCCCN)C(=O)N[C@@H](CCCCN)C(=O)N1CCC[C@H]1C(=O)N[C@@H](C)C(=O)NCC(=O)N[C@@H](C)C(=O)NCC(=O)N[C@@H](CO)C(=O)N[C@@H](CCCCN)C(=O)N[C@@H](Cc1ccccc1)C(=O)N[C@@H](CCCCN)C(=O)N[C@@H](CC(C)C)C(=O)N[C@@H](CC(C)C)C(N)=O [Pex-P1-3]
- E. coli ATCC 25922 MIC (E. coli ATCC 25922; [1]): >512 µg/mL
- MIC E. coli ATCC 25922 (E. coli ATCC 25922): >512 µg/mL
- E. coli ATCC 43827 MIC (E. coli ATCC 43827; [1]): 512 µg/mL
- MIC E. coli ATCC 43927 (E. coli ATCC 43827): 512 µg/mL (≈ 215 µM)

Structure (SMILES): CC[C@H](C)[C@H](NC(=O)CNC(=O)[C@H](CO)NC(=O)[C@H](CCCCN)NC(=O)[C@@H](NC(=O)[C@H](CCCNC(=N)N)NC(=O)CNC(=O)[C@@H](NC(=O)[C@H](CC(C)C)NC(=O)[C@@H]1CCCN1C(=O)[C@H](CC(C)C)NC(=O)[C@@H](N)Cc1ccccc1)[C@@H](C)CC)C(C)C)C(=O)N[C@@H](CCCCN)C(N)=O [Temp-P1-4]
- E. coli ATCC 25922 MIC (E. coli ATCC 25922; [1]): >512 µg/mL
- MIC E. coli ATCC 25922 (E. coli ATCC 25922): >512 µg/mL
- E. coli ATCC 43827 MIC (E. coli ATCC 43827; [1]): >512 µg/mL
- MIC E. coli ATCC 43927 (E. coli ATCC 43827): >512 µg/mL

Structure (SMILES): CC[C@H](C)[C@H](NC(=O)CNC(=O)[C@H](CO)NC(=O)[C@H](Cc1ccccc1)NC(=O)[C@@H](NC(=O)[C@H](CCCNC(=N)N)NC(=O)CNC(=O)[C@@H](NC(=O)[C@H](CC(C)C)NC(=O)[C@@H]1CCCN1C(=O)[C@H](CC(C)C)NC(=O)[C@@H](N)Cc1ccccc1)[C@@H](C)CC)C(C)C)C(=O)N[C@@H](CCCCN)C(N)=O [Temp-P1-2]
- E. coli ATCC 25922 MIC (E. coli ATCC 25922; [1]): >512 µg/mL
- MIC E. coli ATCC 25922 (E. coli ATCC 25922): >512 µg/mL
- E. coli ATCC 43827 MIC (E. coli ATCC 43827; [1]): >512 µg/mL
- MIC E. coli ATCC 43927 (E. coli ATCC 43827): >512 µg/mL
